We go through one molecule from publication PMC4613507 (Biochemical Journal, 2015).

This assay addresses MBP–NHERF2 (full-length) (UniProt Q15599 1-337). The experiment in a line: pull-down.

B1: GST-N–ezrin (GST-tagged N-terminal ezrin […] aa) (domain or fragment)
chain: not shown
In the case of B1, the binding result is listed as “binds”.
